Reference: paper PMC4336329 (PLoS ONE, 2015)
The campaign covered roughly 310,000 compounds. About 14,000 (4.5%) showed an effect of 50% or more. Effects have a minus sign here. This is one part of the list.

What follows are compounds tested against human ether-à-go-go-related gene (hERG) potassium channel (human, UniProt Q12809) (assay: primary screen, population patch clamp on CHO cells stably expressing hERG).
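Further: peak tail current of the secondary pulse compared with the same well before compound.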

Chain of human ether-à-go-go-related gene (hERG) potassium channel (Q12809 whole entry, looked up): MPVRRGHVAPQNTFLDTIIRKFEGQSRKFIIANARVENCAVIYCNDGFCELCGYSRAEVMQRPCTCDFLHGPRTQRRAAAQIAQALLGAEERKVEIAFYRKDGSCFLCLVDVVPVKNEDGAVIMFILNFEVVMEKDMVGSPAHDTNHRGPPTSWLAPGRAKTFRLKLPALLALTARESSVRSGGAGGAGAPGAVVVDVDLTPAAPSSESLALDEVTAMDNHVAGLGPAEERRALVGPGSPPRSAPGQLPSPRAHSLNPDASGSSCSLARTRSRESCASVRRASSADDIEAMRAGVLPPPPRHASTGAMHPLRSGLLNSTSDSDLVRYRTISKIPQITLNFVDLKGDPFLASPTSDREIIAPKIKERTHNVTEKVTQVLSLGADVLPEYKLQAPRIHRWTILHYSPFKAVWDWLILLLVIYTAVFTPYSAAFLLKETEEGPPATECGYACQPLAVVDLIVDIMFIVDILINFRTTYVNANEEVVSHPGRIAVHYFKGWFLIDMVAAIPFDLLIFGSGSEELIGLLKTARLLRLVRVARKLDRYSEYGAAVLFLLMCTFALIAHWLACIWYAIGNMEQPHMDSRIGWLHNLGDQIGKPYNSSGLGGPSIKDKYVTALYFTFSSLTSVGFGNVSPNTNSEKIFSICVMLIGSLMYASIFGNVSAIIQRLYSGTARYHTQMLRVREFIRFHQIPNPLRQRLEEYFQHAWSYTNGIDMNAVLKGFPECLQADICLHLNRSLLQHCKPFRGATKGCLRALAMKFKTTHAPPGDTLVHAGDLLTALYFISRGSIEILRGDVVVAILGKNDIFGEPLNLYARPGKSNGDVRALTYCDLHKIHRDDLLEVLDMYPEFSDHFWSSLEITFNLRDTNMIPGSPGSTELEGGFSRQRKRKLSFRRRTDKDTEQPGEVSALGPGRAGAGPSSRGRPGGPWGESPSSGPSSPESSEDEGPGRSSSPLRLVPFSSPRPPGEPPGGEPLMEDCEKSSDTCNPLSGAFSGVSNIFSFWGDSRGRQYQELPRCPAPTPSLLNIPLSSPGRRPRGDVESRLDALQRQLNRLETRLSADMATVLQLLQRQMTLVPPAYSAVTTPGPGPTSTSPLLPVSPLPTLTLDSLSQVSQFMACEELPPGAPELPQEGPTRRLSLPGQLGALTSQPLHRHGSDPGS

| Compound | hERG current change (%, negative = inhibition) at 10uM [%] |
| --- | --- |
| O=C(c1ccco1)N1CCN(C(=S)NCc2ccc(F)cc2)CC1 | -53.1 |
| O=C(O)CN1C(=O)C2C3CC(C2C1=O)C1C(c2ccc(Cl)cc2)c2sc(=O)[nH]c2SC31 (stereo not shown) | 0.367 |
| O=S(=O)(c1ccc(SCCOc2ccc(Cl)cc2)nc1)N1CCCC1 | -13 |
| CC(C)N(Cc1ccccc1)C(=O)COC(=O)c1ccc2c(c1)OCCO2 | 1.41 |
| Cn1ccc(=S)c2ccccc21 | 11.1 |
| COc1ccc(CCNS(=O)(=O)c2cn(C)nc2C)cc1 | 17.2 |
| Cc1ccccc1NC(=O)c1sc(NC(=O)COc2ccccc2)c(C#N)c1C | 9.18 |
| COc1ccc(OCC(O)Cn2c(Nc3ccccc3)nc3c2c(=O)n(C)c(=O)n3C)cc1 (stereo not shown) | 2.94 |
| O=C(c1csc2ccccc12)N1CCCCCC1 | 8.81 |
| COC(=O)c1[nH]c2ccc(C)cc2c1NC(=O)CCN1CCN(Cc2ccc3c(c2)OCO3)CC1 | -66.1 |
| Cc1ccccc1CS(=O)(=O)CCC(=O)O | 0.0412 |
| O=C(NCCCl)Nc1ccccc1OCCOc1ccccc1NC(=O)NCCCl | -0.276 |
| C=CCn1c(SCC(N)=O)nnc1-c1cc(Br)ccc1O | -24.4 |
| COC(=O)CCCC(=O)N1CCCC(CNS(=O)(=O)c2ccc(OC)cc2)C1 (stereo not shown) | 32.1 |
| CC(C)n1c(O)c(C=NCc2cccnc2)c(=O)[nH]c1=S | -9.13 |
| CCN(C(=O)CCCC(=O)N(CC)c1ccccc1)c1ccccc1 | 20.4 |
| Cc1c(Nc2nc3ccccc3nc2NS(=O)(=O)c2cccc(Cl)c2)c(=O)n(-c2ccccc2)n1C | -2.18 |
| Cc1ccc(N2CC(C(=O)N3CCN(c4ccccc4)CC3)CC2=O)cc1 (stereo not shown) | -17.6 |
| Cc1cc(C)c(C#N)c(SCc2ccccc2)n1 | 11.2 |
| Cc1occc1C(=O)Nc1ccc([N+](=O)[O-])cc1Br | 18.9 |
| COc1ccc(C2=NS(=O)(=O)N(C)C(C(=O)NC3CCCC3)=C2)cc1OC | -17.5 |
| CC(C)(C)c1cc(NC(=O)COC(=O)c2ccc3c(=O)n4c(nc3c2)CCC4)n(-c2ccccc2)n1 | -24.9 |

| Compound | hERG current change (%, negative = inhibition) at 10uM [%] |
| --- | --- |
| CN1CCN(S(=O)(=O)c2cccc(C(=O)N(C)C(c3ccccc3)c3ccccc3)c2)CC1 | -4.72 |
| CCOC(=O)CCc1c(C)nc(-n2[nH]c(C)c(CCO)c2=O)[nH]c1=O | 21.6 |
| Cc1ccc2nc(NCCNC(=O)c3ccccc3)c(C#N)cc2c1 | -0.918 |
| Cc1cc(C)nc(N(C#N)Cc2cccc(Cl)c2)n1 | -4.53 |
| O=C(O)CN1C(=O)CCS(=O)c2ccccc21 (stereo not shown) | 8.68 |
| O=C(COC(=O)c1ccc(O)cc1O)c1ccc(Cl)cc1 | 15.9 |
| CCOc1cc(/C=N/NC(=O)CN2CCOCC2)ccc1OCc1ccccc1 | -9.58 |
| CC(=O)c1ccc(S(=O)(=O)NC2CC(=O)N(c3ccc(C)c(C)c3)C2)cc1 (stereo not shown) | -21.4 |
| CC1CC(C)(C)NC(=S)N1CC(=O)NCc1ccc(Cl)cc1 (stereo not shown) | -11.3 |
| CCc1ccc(CN(C(=O)c2oc3ccccc3c2C)C2CCS(=O)(=O)C2)cc1 (stereo not shown) | -19.7 |
| COc1ccc([C@H]2CC(=O)C=C(c3ccc(Cl)cc3C)C2)cc1 | 4.03 |
| O=C1CS/C(=N\c2ccccn2)N1C1CCCCC1 | 13.7 |
| COc1ccc(NC(=O)CN2CCCN(S(=O)(=O)c3ccc(F)cc3)CC2)c(OC)c1 | -54.6 |
| CCC(=O)N(CCC1(C(C)C)CCOC(C)(C)C1)Cc1ccco1 (stereo not shown) | 5.86 |
| Cc1ccc(C(=O)Oc2cccc(-n3cnnn3)c2)cc1 | 9.55 |
| CC(/C=C/c1ccccc1)=N/NC(=O)c1cnccn1 | 2.83 |
| COc1cccc(C2/C(=C(/O)c3ccc4c(c3)CC(C)O4)C(=O)C(=O)N2CCCn2ccnc2)c1 (stereo not shown) | 0.887 |
| CCCN(CC(=O)Nc1ccc(Cl)cc1Cl)C(=O)/C=C/c1cccc([N+](=O)[O-])c1 | -15.6 |
| COc1ccc(N2CCN(C(=O)c3cc(-c4ccc(F)cc4)[nH]c3C)CC2)cc1 | -67.4 |
| CC(C)CC(=O)NC(=S)N1CCCCCC1 | 10.5 |
| Cc1ccccc1-c1cc(C(=O)Nc2nc3c(s2)CCCC3)c2ccccc2n1 | 13.4 |
| O=C(CSc1nc2ccccc2[nH]1)N1CCN(c2ccc(F)cc2)CC1 | -55.6 |

| Compound | hERG current change (%, negative = inhibition) at 10uM [%] |
| --- | --- |
| Cc1ccc(C(=O)CSc2nnc(-c3ccccc3)o2)cc1 | -0.101 |
| COC(=O)c1ccc(NC(=O)c2ccccc2SC)cc1 | -21.5 |
| O=C(O)CCN1C(=O)c2ccccc2C1=O | 26 |
| CN(C(=O)Cn1c(Cl)nc2c1c(=O)n(C)c(=O)n2C)C1CCS(=O)(=O)C1 (stereo not shown) | 19.3 |
| Cc1ccc(NC(=O)CSC2=NN3CCCC(=O)N=C3S2)c(C)c1 | -7.61 |
| C=CCn1c(=O)c(C#N)cc2c(=O)n3ccccc3nc21 | -1.57 |
| O=C(O)CCc1nn2cnc3sc4c(c3c2nc1=O)CCCC4 | -2 |
| Cc1ccc(S(=O)(=O)N2CCC(C(=O)NCC3CC3)CC2)cc1 | -10.3 |
| O=C(Nc1ccc(Br)cc1F)c1ccc2c(c1)OCCO2 | 12.3 |
| CCN(CC)CCn1c(NCc2cccc(OC)c2OC)nc2ccccc21 | -47 |
| Cc1ccc(C)c(OCC(O)CNC2CCCC2)c1.Cl (stereo not shown) | 8.8 |
| Cc1c(C(=O)OCC(=O)N2CC(=O)Nc3ccccc32)oc2ccccc12 | 18.4 |
| Cc1cc2[nH]c3ccccc3c2cn1 | -12.3 |
| CCN1CCN(c2ccc([N+](=O)[O-])cc2C#N)CC1 | -68.2 |
| Cc1nccn1CC(O)Cn1c2ccccc2c2ccccc21 (stereo not shown) | -24.1 |
| O=C(NC1CCCc2c1cnn2-c1ccccc1F)c1ccccn1 (stereo not shown) | 5.09 |
| CCCN(CC(=O)Nc1ccccc1OC)C(=O)c1cc(S(=O)(=O)NCc2ccccc2)ccc1C | -2.38 |
| CC(=O)c1cccc(NC(=O)C2CCCN(S(=O)(=O)c3cccc4nonc34)C2)c1 (stereo not shown) | 13.9 |
| Brc1nnc2n1-c1ccccc1Sc1ccccc1-2 | -71.8 |
| O=C(O)c1ccc2c(c1)nnn2C1CCCCC1 | 14.9 |
| O=C(Nc1ccc(S(=O)(=O)Nc2ncccn2)cc1)c1nn(Cc2ccccc2)c(=O)c2ccccc12 | -1.68 |
| CCOP(=O)(OCC)C1(O)C(=O)Nc2ccccc21 (stereo not shown) | -6.02 |

| Compound | hERG current change (%, negative = inhibition) at 10uM [%] |
| --- | --- |
| O=C(NCC1CCN(c2ccc(S(=O)(=O)N3CCOCC3)cc2)CC1)c1ccc(Cl)cc1 | -57.2 |
| Cc1ccc(NC(=O)C2CC(=O)N(C(C)c3ccccc3)C2)cc1 (stereo not shown) | 4.78 |
| O=C(NCc1cccnc1)c1ccc(NC(=O)c2ccc([N+](=O)[O-])cc2)cc1 | 9.09 |
| COCCN1C(=O)N[C@@H](c2cccs2)C(C(C)=O)=C1C | 10.4 |
| O=C(CCCN1C(=O)/C(=C/c2cccs2)SC1=S)Nc1cccc(C(=O)O)c1 | 5.62 |
| CCCNS(=O)(=O)c1ccc(CCC(=O)N2CCC(C)CC2)cc1 | -2.41 |
| O=C(CCc1nc2cccnc2n1Cc1ccccc1)N1CCOCC1 | -39.4 |
| COc1ccc(S(=O)(=O)/C(C#N)=C/Nc2cccc(OC)c2)cc1 | 11.2 |
| CCC(=O)Nc1ccc(Cl)c(NC(=O)c2ccc(Br)o2)c1 | -5.42 |
| CCNc1nc(NCC)nc(N(C)/N=C/c2ccco2)n1 | -10.7 |
| COc1ccc(NC(=O)CN(C)C(=O)c2cccc(S(=O)(=O)N3CCN(c4ccccc4)CC3)c2)cc1 | -3.62 |
| CCOC(=O)N1CCC(NC(=O)CN2C(=O)CCSc3ccccc32)CC1 | -2.52 |
| COc1ccc(/C=N/NC(=O)c2ccc(Cl)cc2Cl)cc1COC(C)=O | -8.47 |
| CC1=C(C#N)C(NC(=O)C2CCCCC2)(C(F)(F)F)C(=O)N1 (stereo not shown) | 11.3 |
| CCOc1ccccc1N(C(=O)c1ccco1)C(C(=O)NC1CCCC1)c1cccs1 (stereo not shown) | -23 |
| Cc1ccc2c(COC(=O)CC3Sc4ccccc4NC3=O)cc(=O)oc2c1C (stereo not shown) | 22.7 |
| O=C(c1ccc(C(=O)N2CCCc3ccccc32)nc1)N1CCCc2ccccc21 | -9.08 |
| CCCCNc1ncnc2c1cnn2-c1ccc(C)cc1C | -21.7 |
| CCN(CC)S(=O)(=O)c1ccc(S(=O)(=O)NCc2cccs2)cc1 | 7.17 |
| CC(Oc1ccc(Cl)cc1)C(=O)N1CCCc2ccccc21 (stereo not shown) | 7.39 |
| O=C(CN1CCN(CC(=O)Nc2ccccc2Cl)CC1)Nc1ccc(F)c(F)c1 | -78.2 |
| CC(=O)c1cccc(N2Cc3ccccc3C2=NC(=O)CCl)c1 | 11.1 |
